Like-named read-outs stand apart in the source and are kept apart here.
What was measured:
[1] = SPR (Biacore) Protein A mAb capture, Compound A injected; details: 37° C., binding to Compound A, for rank ordering only
Experimental: The binding of hybridoma expressed 26D5 parent mAb (VH SEQ ID NO: 83 and VL SEQ ID NO: 98 in IgG1 f format)(P1-072224) and affinity matured mAbs to Compound A was examined by SPR (Biacore™) using a protein A capture method. The running buffer was 1×PBS (phosphate buffered saline, pH 7.4) with 0.05% Tween 20 and 2% DMSO. Binding experiments were carried out at 37° C. Protein A was coated on a CM5 S-series sensor chip (Cytiva, Cat. No. 29149603) at high density (2000+ RUs of protein A). The immobilization of protein A was carried out using the standard amine coupling immobilization procedure recommended by the manufacturer. The affinity matured antibody was then captured at a concentration of 2 ug/mL on the protein A surface at a flow rate of 3 uL/min for 2 minutes. Compound A was then injected over the captured antibody at concentrations spanning 100-3 nM (100, 50, 25, 12.5, 6.25, 3.125 nM) (FIG. 10) and for screening concentrations spanning 100-3 nM (100, 33, 11 nM) for 2 minutes at a flow rate of 100 uL/min and allowed to dissociate for at least 450 seconds. The chip surface was regenerated after each cycle with a 40 second pulse of 10 mM Glycine, pH 1.5. Background binding to the protein A surface alone was used to subtract non-specific binding. All experiments were run on a Biacore T200 surface plasmon resonance instrument using Biacore T200 Control software v. 2. Data analysis was performed using Biacore T200 evaluation software v 3.1. Apparent affinities were determined for rank ordering only since dissociation rates were too slow to be measured by Biacore. The names of the mAbs in Table 10 refer to mAbs having the H and L chain sequences of the corresponding Fabs in Table 3 in an IgG1f format.

[2] = Competitive TR-FRET assay modified for mAbs and Fabs (T0, T24, T48); assay type: binding; details: 37° C.
Experimental: A competitive TR-FRET (time-resolved fluorescence resonance energy transfer) assay was developed to rank-order the dissociation of α-Compound A mAbs from Compound A as equilibrium is reached at 37° C. The assay buffer was HBS-N (10 mM HEPES, 150 mM NaCl, pH 7.4; GE Healthcare), 0.1% (w/v) BSA (bovine serum albumin; Sigma), 2% DMSO (dimethyl sulfoxide; Sigma). All reagents were prepared in assay buffer and dispensed in equal volumes into white 384 microplates with final volume of 20 μl per well at the following final concentrations: 4 nM COMPOUND 5, the biotinylated analog of COMPOUND 2, a 100 0.1 nM 7-pt titration of human α-Compound A antibodies, 0.1 nM europium-labeled α-mouse IgG (LANCE Eu-W1024; PerkinElmer), 5 nM streptavidin-D2 (Cisbio), and 4 nM mAb 26D5 VH_A10G_Y33A_S53P_M89V_G95A; VK_W32N_H38Q (P1-075621, the second-round optimization parent 26D5-295-B08 formatted with mouse IgG Fc). COMPOUND 5 and α-Compound A antibody titrations were added first to the microplate, and were subjected to an initial incubation at 37° C., 1000 rpm, for one hour to facilitate antibody binding to the compound. After the initial incubation period, the europium α-mouse IgG, streptavidin-D2, and 26D5-mouse IgG (P1-075621) were added sequentially, then the plate was returned to 37° C., 1000 rpm incubation. Microplates were read using a Perkin Elmer EnVision plate reader, and the measured FRET signal was defined as [665 nm]/[620 nm]*10,000. Microplates were read at 30 minutes (T0) and after 24 hour (T24) intervals. For each antibody titration, the FRET signal was converted to % Inhibition relative to wells without α-Compound A antibody: (100 ((FRET at [antibody concentration]/FRET at 0 nM)*100). The % inhibition antibody titrations were plotted using TIBCO Spotfire (v.7), and the IC50 was determined using a 4-parameter model curve fit. The IC50s at each timepoint were reported, as well as the IC50 curve shift relative to T0. An IC50 curve shift indicated α-Compound A antibody dissociation from the biotinylated compound as the assay reached equilibrium, which subsequently allowed 26D5-mouse IgG1 (P1-075621) competitor to bind and generate the FRET signal detected in the assay.
The competitive TR-FRET assay defined above was also modified to assess optimized 26D5 antibody progeny that were reformatted as Fabs. The α-Compound A antibody and Fab titration series were extended to 250 0.244 nM (11-pt titration), and replicates of each concentration were collected in quadruplicate. The assay incubation was extended to include an additional 48 hr timepoint to ensure equilibrium was reached, and T48 hr IC50 and IC50 shifts were reported. The % inhibition titrations were plotted in Graphpad Prism (v.8) and fit to a 4-parameter model. All other experimental setup conditions were otherwise identical to the antibody TF-FRET assay.
Competitive FRET data collected for affinity-optimized α-Compound A 26D5 progeny comparing human antibodies and Fabs are shown in FIG. 14 and Table 13. Each panel represents a single α-Compound A sequence, with antibody (mAb, solid lines, circles) and Fab (dotted lines, triangles) formats overlaid. […] The names of the mAbs/Fabs in Table 13 refer to the corresponding sequences in Tables 1-3. All mAbs listed in Table 13 were in a human IgG1f/LC kappa format.

Kd ([1]; apparent affinity, read-out: KD): < 0.03 nM
Kd ([1]; apparent): <5e-05 s⁻¹
IC50 ([2]; 24 hr, read-out: T24 hr IC50): 2.5 nM
IC50 ([2]; 48 hr, read-out: T48 hr IC50): 2.8 nM
IC50 ([2]; read at 30 minutes (T0), competitor 26D5-mouse IgG (P1-075621), read-out: T0 IC50): 1.4 nM
B1: 26D5-75616-348-F10-mAb: human IgG1f/kappa mAb; VH SEQ ID NO: 55, VL SEQ ID NO: 88; heavy chain SEQ ID NO: 201 (antibody)
heavy: EVQLVESGGGLIQPGGSLRLSCAASGFTVSSNAMSWVRQAPGKGLEWVSFIYPGGRTYYADSVKGRFTISRDNSKNTLYLQMNSLRAEDTAVYYCARAEFGLEDIWGQGTLVTVSSASTKGPSVFPLAPSSKSTSGGTAALGCLVKDYFPEPVTVSWNSGALTSGVHTFPAVLQSSGLYSLSSVVTVPSSSLGTQTYICNVNHKPSNTKVDKRV[no letters for human IgG1 Fc]
VL: DIQMTQSPSSVSASVGDRVTITCRASQGISSNLAWYQQKPGKAPKLLIYAASSLQSGVPSRFSGSGSGTDFTLTISSLQPEDFATYYCQQANSFPLTFGGGTKVEIK
Ka ([1]; apparent): 1.7e+06 M⁻¹ s⁻¹
T24 hr IC50 shift ([2]; IC50 shift at 24 hr relative to T0): 1.1 nM
T48 hr IC50 shift ([2]; IC50 shift at 48 hr relative to T0): 1.4 nM

Source: patent US12065505B2, “Antibodies and antigen binding peptides for factor XIa inhibitors and uses thereof” (Bristol-Myers Squibb Company, priority 2021, dated 2024)
